# Measured values published in publication PMC10726135.
# The other results are listed elsewhere or left out. At the low end of the ranking the order means little. The protein was read in a cell extract, so binding may be indirect.
# Biological target: T1, HNF4alpha2 (COS-7 nuclear extract) (UniProt P41235)
# T1 sequence: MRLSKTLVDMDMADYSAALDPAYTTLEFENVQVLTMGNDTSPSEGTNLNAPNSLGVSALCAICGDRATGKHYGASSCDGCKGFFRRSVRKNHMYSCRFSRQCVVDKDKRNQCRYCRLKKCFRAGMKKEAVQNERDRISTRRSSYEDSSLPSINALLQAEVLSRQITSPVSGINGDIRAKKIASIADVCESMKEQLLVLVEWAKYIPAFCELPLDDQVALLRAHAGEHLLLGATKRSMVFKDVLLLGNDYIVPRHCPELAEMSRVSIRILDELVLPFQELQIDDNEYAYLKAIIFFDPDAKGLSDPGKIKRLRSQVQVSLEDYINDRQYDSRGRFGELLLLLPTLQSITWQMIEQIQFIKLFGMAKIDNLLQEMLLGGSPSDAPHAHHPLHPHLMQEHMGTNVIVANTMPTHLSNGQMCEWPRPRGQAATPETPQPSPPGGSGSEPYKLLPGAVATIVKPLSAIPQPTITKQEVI
# Assay: protein-binding microarray
# Conditions: COS-7 nuclear extract on double-stranded Agilent 4x180k PBM; binding buffer, salt, pH and temperature not given; high values mean tight binding; double strand, one strand shown; sequences stand for … in …GCCTAGGGAGATTAGAGTATCGGTCGA
row,Sequence,binding signal (log2 normalized intensity)
1,CCTTCGTTTGCTTTTCCTTATCATCACATG,1.55
2,GTGGGAAAATTCCCCAGGAGGAGATAAGAT,-1.22
3,GCGCCCCCGTGTGGCCGCGAGCACCGCGCG,2.55
4,TTTGCCCTCTCTTCAGCACCTTTTAAAATA,0.354
5,GCCTCCACTCCTCCTCCTTCCCTCCTGCTC,1.3
6,CAATCTTGTTGGGTCAGTTTATCGAAAATC,1.66
7,GCAATCACAAGGAATGCCCTTATCTCCCAG,0.579
8,GGGAGGCCGCTGACAAGCAGCCTCAGTGGC,-1.02
9,GGGGCCCACTGAGACGGGCTGAGGATGAGG,-1.14
10,CATCTGGGGAAAGTGCAAGGGCCCAGAGGA,-1.04
11,GTGAAACACAGGACTTGATCCAGGGCAAAG,-1.11
12,GCTGGAATCTTGATAATGCCCTGACCCTAG,2.47
13,GAGGACTTTGGCCTTTTGTGAGATATGGAC,3.45
14,CGTGAAAGTTAACTTTGTAACTAACAACTG,0.627
15,CTAAATGGTAGGATTGTTTGGGGATTACAC,0.61
16,GCAAAACCTGATGTTTGGACAGTGTGACTC,0.907
17,ACTGATGCTCATAGCTACGGGTGACCTTGA,3.58
18,GAGGTGTCAGCCACCCCTCCTCCTGGGGGC,2.64
19,TTTATTAGGGGTCAGCAAAGAACTCCCCAG,1.73
20,CCCAGGCCGTTGGACCAAGCTCTAGCATCC,-1.17
21,GGGTTTGACCGTTCTCTCCGGGTAAAGGTG,1.87
22,CACAAAGTACAGCTTTTTGTTTGTGTAAGT,2.05
23,CAGTGTTTACCGGATGAAAAGTGTTTGCCA,1.49
24,CCTCCCCGCCACCCCCCAGAGGGCCATCTA,5.83
25,TCAGGCTGAGGTGCTCTCAGATAAGAGATG,-0.855

row,Sequence,binding signal (log2 normalized intensity)
1,ATTAACCAAAGCTACACAGATAAGCCATTC,-1.15
2,GGAATGGCAGTGCTTGTCCAAGATGGCAAT,-1.17
3,CTGCACTGACACTGTCCCAGCTGAGATTCA,-1.1
4,CCGATCCTTACTATTAGGTCTTTGAAGTTG,1.68
5,ATCAGCAGCCCAGCATACCATTCCCACCCC,4.29
6,TCAATGACTACCTGTTACCCACCTGATATT,1.16
7,TCACCTGGAGAAGCAGAAGCTGCACACATG,-1.09
8,GGGTCATTTTATGGGAAAACAGAATGGTCT,1.54
9,CTAGTTCATTAAACATGTTTACTCTGGTCC,1.61
10,CTGGTGGAGGGGACCTTTTCCTCGGGTGTC,0.956
11,TGACACAGCCACAAAAACCAAAGGTCACTT,4.39
12,ATGCAAACAGCAGCCACATTCCATGAGCTG,-1.11
13,TTTTTAGATAGTGACTTGAAAGGGACTTAG,0.421
14,TTTGCAAGTGGAGATTTCAGCCGCTTTGAG,-1.15
15,ACCCAGAACCCCCAGGTCACCCACAACCTA,4.08
16,TTTTAAAATAGATAAGTCCCTAAGAGGAAT,-0.74
17,AAAGCCAGCTGTCTATCCTTATTTATCTTC,-1.13
18,CTCTGAGATTCGGTGAGGGATTGTTTAGGT,0.957
19,CTCTTGTAATTTAAGTGGTTCACAAACATT,1.73
20,CAAGGCAGCTCAGCTAGTGAGATACGGCCT,-1.1
21,TCTGTTTGAGGTTCACTGGGGAGACTCTCT,0.44
22,TTTTTTCAAGTGTTAGCTGTTTCCAAATAT,1.42
23,GCCCAGCAGAGCAGTTTAGAGAAAGGGTCA,2
24,GAAATACAGTAGACTTTTTTTTTCTTAATT,-0.841
25,GGAGCTGTGGGCCTCACACCCTCTAGGGTA,-1.14

row,Sequence,binding signal (log2 normalized intensity)
1,TTTTAAATACCTTTTTGGGACTGATAACTT,0.85
2,CACCTTTGAAATCTCAAATAGCTGGGTCTC,0.905
3,ATTACTTCTCAACTGATATGGCTCTGTTTT,1.08
4,GAGCTTCTGTCTTGGACTGCGAAAGATAAA,-0.124
5,GGCCAGGGAGTACACCCCTCACTCCCTCCA,2.85
6,CCTCCCAGGGACACATGCCCCTTCCCTCCC,4.11
7,TCCAACCCTCCGTTTCTCTGGGCCTGATAG,-1.18
8,CCTGTGACCAAGAATGCCTAACCTCCTAGG,-1.11
9,ACAAAGCCTGGGGTTTGGCTCCAAGGCTGA,-1.13
10,GCATGACTACATTCTTTGAAGACTAGGCTC,-1.06
11,CCACTGAGACGGGCTGAGGATGAGGACTTT,2.83
12,AACCATCTGGCTTGGCCCCCGGACCCAAAG,4.03
13,AAAGCCCATTAAATCTTCCCTCCTGTGAAC,0.779
14,TCTGATACATTGGACAACTGTACTTTGGAC,7.2
15,GATAAGGCGTCTTATCAGCCCCCATGTCAG,3.31
16,TTCTGTTCAATGGTGCTTTTGATATTGTTG,2.06
17,GACTCGAATGCGAACCTGTCTCCAGAGGAC,-1.03
18,TAGTTAGGGCCTTGCAGGGGGCCTCCTGCC,-1.03
19,TTGGGGCTGATGTGCACAGTCCACAGAAAC,0.0465
20,CATTCTTTCCAGCTTTGATAGTCTGCTACC,1.59
21,GCAACTGGTGAGCAGGTTAATTATAATCGC,0.694
22,GAGAACAGGTTCATTCTTTAAGTGTGGGGT,1.46
23,TACATTTGACTGAGGTGCAGGACAAAGTGT,1.03
